Source: patent US20250145722A1, “ANTI-GAL3 ANTIBODIES AND METHODS OF USE” (TrueBinding, Inc., priority 2020, published 2025)

Molecular target: T1, Human Gal3 peptides (Homo sapiens, UniProt P17931)
T1 construct: purchased LifeTein custom order; host or cells: synthetic peptides
Test: Gal3 peptide library binding ELISA
Details: antibodies 5 μg/mL
Protocol: To identify the epitopes to which Gal3 antibodies with and without Gal3-APP695 blocking activity bound, a library of 20 amino acid peptides representing portions of Gal3, summarized in FIG. 17 (SEQ ID NOs: 3-26), was produced and the ability to bind Gal3 antibodies was evaluated by ELISA.
Human Gal3 peptides (LifeTein, custom order) and human Gal3 proteins (R&D Systems, 8259-GA; TrueBinding, QCB200349) were diluted in PBS (Corning, 21-030-CM) to concentrations of at least 100 μg/mL (peptides) or 1 μg/mL (proteins), and added to the wells of several 96-well ELISA plates (Thermo Fisher, 44-2404-21). After incubating the plates at 4° C. overnight, the plates were washed three times with PBST (PBS with 0.05% Tween 20 [VWR, 0777]). The plates were then blocked for an hour with 2% BSA (EMD Millipore, 126609) in PBST at room temperature with gentle rocking. Thereafter, the 2% BSA in PBST was discarded and Gal3-binding antibodies (reformatted hIgG4 [S228P]) were diluted in 2% BSA in PBST to concentrations of 5 μg/mL and added to the wells. The plates were incubated for an hour at room temperature with gentle rocking and then washed three times with PBST. Afterwards, Peroxidase AffiniPure F(ab′)2 Fragment Goat Anti-Human IgG (H+L) polyclonal antibody (Jackson ImmunoResearch, 109-036-003), was diluted in 2% BSA in PBST (1:4000) and added to the wells. The plates were incubated for 1 hour at room temperature with gentle rocking and then washed three times with PBST. TMB substrate (Thermo Scientific, 34029) was then added to each well. The reaction was stopped with 1M HCl (JT Baker, 5620-02) and read using a plate reader (Molecular Devices) at absorbance of 450 nm.

Molecule | Binding to Peptide 1 (SEQ ID NO: 3) of Gal3 | Binding to Peptide 7 (SEQ ID NO: 9) of Gal3 | other results
F849C.8D10: anti-Gal3 antibody (antibody) heavy: QVQLQQTGAELVKPGASVKLSCKASGYTFTSYWINWVKQRPGQGLEWIGNIYPGSSSIYYSEKFKSKATLTVDTSSSTAYMQLSSLTSDDSAVYYCARWGYWGQGTTLTVSSASTKGPSVFPLAPCSRSTSESTAALGCLVKDYFPEPVTVSWNSGALTSGVHTFPAVLQSSGLYSLSSVVTVPSSSLGTKTYTCNVDHKPSNTKVDKRV[letters of human IgG4 Fc with S228P (EU numbers) omitted] light: DVLMTQTPLSLPVSLGDQASISCRSSQDIVHSSGNTYLEWYLQKPGQSLKLLIYKVSNRFSGVPDRFSASGSGTDFTLKISRVEAEDLGVYYCFQGSHVPPTFGSGTKLEIKRTVAAPSVFIFPPSDEQLKSGTASVVCLLNNFYPREAKVQWKVDNALQSGNSQESVTEQDSKDSTYSLSSTLTLSKADYEKHKVYACEVTHQGLSSPVTKSFNRGEC |  |  | Binding to Peptide 2 (SEQ ID NO: 4) of Gal3: bind; Binding to Peptide 3 (SEQ ID NO: 5) of Gal3: bind
F846TC.7F10: anti-Gal3 antibody (antibody) heavy: EVQLVESGGDLVKPGGSLKLSCAASGFTFSNYGLSWIRQTPDKRLEWVATISSGGSYTYYPDSVKGRFTISRDSAKNTLYLQMSSLKSEDTAMYYCARHAHYYGVSPYYFDYWGQGTCLTVSSASTKGPSVFPLAPCSRSTSESTAALGCLVKDYFPEPVTVSWNSGALTSGVHTFPAVLQSSGLYSLSSVVTVPSSSLGTKTYTCNVDHKPSNTKVDKRV[letters of human IgG4 Fc with S228P (EU numbers) omitted] light: DIVMTQSPSSLAMSVGQKVTMSCKSSQSLLNSSNQKNYLAWYQQKPGQSPKLLVYFASTRESGVPDRFIGSGSGTDFTLTISSVQAEDLADYFCQQHYSTPYTFGGGAKLEIKRTVAAPSVFIFPPSDEQLKSGTASVVCLLNNFYPREAKVQWKVDNALQSGNSQESVTEQDSKDSTYSLSSTLTLSKADYEKHKVYACEVTHQGLSSPVTKSFNRGEC | bind and bound |  | 
F847C.4B10: anti-Gal3 antibody (antibody) heavy: EVQLVETGGGLVKPGGSLKLSCAASGFTFSSYAMSWVRQTPEKRLEWVASISSGGSTYYPDSVKGRFTISRDNARNILYLQMSSLRSEDTAMYYCTRFTTVVEMDYWGQGTSVTVSSASTKGPSVFPLAPCSRSTSESTAALGCLVKDYFPEPVTVSWNSGALTSGVHTFPAVLQSSGLYSLSSVVTVPSSSLGTKTYTCNVDHKPSNTKVDKRV[letters of human IgG4 Fc with S228P (EU numbers) omitted] light: QAVVTQESALTTSPGETVTLTCRSSTGAVTTSNYANWVQEKPDHLFTGLIGGTNNRAPGVPARFSGSLIGDKAALTITGAQTEDEAIYFCALWYSNHLVFGGGTKLTVLRTVAAPSVFIFPPSDEQLKSGTASVVCLLNNFYPREAKVQWKVDNALQSGNSQESVTEQDSKDSTYSLSSTLTLSKADYEKHKVYACEVTHQGLSSPVTKSFNRGEC | bind and bound |  | 
F846C.1H5: anti-Gal3 antibody (antibody) heavy: EVQLLESGGGLVKPGGSLKLSCAASGFTFSSYAMSWVRQTPEKRLEWVASISSGGDTYYPDSVKGRFTISRDNARNILYLQMSSLRSEDTAMYYCASYGNSLFDYWGQGTTLTVSSASTKGPSVFPLAPCSRSTSESTAALGCLVKDYFPEPVTVSWNSGALTSGVHTFPAVLQSSGLYSLSSVVTVPSSSLGTKTYTCNVDHKPSNTKVDKRV[letters of human IgG4 Fc with S228P (EU numbers) omitted] light: DVVMTQTPLSLPVSLGDQASISCRSSQSLVHNSGNTYLHWYLQRPGQSPNLLIYKVSNRFSGVPDRFSGSGSGTDFTLKISRVAAEDLGVYFCSQSTHVPPTFGGGTKLEIKRTVAAPSVFIFPPSDEQLKSGTASVVCLLNNFYPREAKVQWKVDNALQSGNSQESVTEQDSKDSTYSLSSTLTLSKADYEKHKVYACEVTHQGLSSPVTKSFNRGEC | bind and bound |  | 
F846C.1B2: anti-Gal3 antibody (antibody) heavy: QIQLVQSGPELKKPGETVKISCKASGYTFTNYGMNWVKQAPGKGLKWMGWINTYTGEPSYADDFKGRFAFSLETSASTAYLQINNLKNEDMATYFCARWGGYAGDYYAMDFWGQGTSVTVSSASTKGPSVFPLAPCSRSTSESTAALGCLVKDYFPEPVTVSWNSGALTSGVHTFPAVLQSSGLYSLSSVVTVPSSSLGTKTYTCNVDHKPSNTKVDKRV[letters of human IgG4 Fc with S228P (EU numbers) omitted] light: NIWLTQSPSSLAVSAGEMVTMTCKSSQSVLYSSNQKNYLAWYQQKPGQSPKLLIYWASTRESGVPDRFTGSGSGTDFSLTISSVQAEDLAVYYCHQYLSSLTFGAGTKLELKRTVAAPSVFIFPPSDEQLKSGTASVVCLLNNFYPREAKVQWKVDNALQSGNSQESVTEQDSKDSTYSLSSTLTLSKADYEKHKVYACEVTHQGLSSPVTKSFNRGEC |  | bind and bound | Binding to Peptide 5 (SEQ ID NO: 7) of Gal3: bind; Binding to Peptide 6 (SEQ ID NO: 8) of Gal3: bind and bound
F847C.10B9: anti-Gal3 antibody (antibody) heavy: QIQLVQSGPEVKKPGETVKISCKASGYIFTNYGMNWVKQAPGKGLKWMGWINTYTGEPTYTDDFKGRFAFSLETSASTAYLQINNLKNEDTATYFCAKFGNYVGAMDYWGQGTSVTVSSASTKGPSVFPLAPCSRSTSESTAALGCLVKDYFPEPVTVSWNSGALTSGVHTFPAVLQSSGLYSLSSVVTVPSSSLGTKTYTCNVDHKPSNTKVDKRV[letters of human IgG4 Fc with S228P (EU numbers) omitted] light: DIRMTQSPSSLSASLGDTITITCHASQNINVWLSWYQQKPGNIPKLLIYKASNLHTGVPSRFSGSGSGTGFTLTISSLQPEDIATYYCQQGQSYPYTFGGGTKLELKRTVAAPSVFIFPPSDEQLKSGTASVVCLLNNFYPREAKVQWKVDNALQSGNSQESVTEQDSKDSTYSLSSTLTLSKADYEKHKVYACEVTHQGLSSPVTKSFNRGEC | bind and bound | bind and bound | 
F846TC.14E4: anti-Gal3 antibody (antibody) heavy: QVTLKESGPGILQPSQTLSLTCSFSGFSLSTSGMGVGWIRQPSGKGLEWLAHIWWDDDKYYNTALKSGLTISKDASKNQVFLKIASMDTADTATYYCARNLYDGSYGYYAMDYWGQGTSVTVSSASTKGPSVFPLAPCSRSTSESTAALGCLVKDYFPEPVTVSWNSGALTSGVHTFPAVLQSSGLYSLSSVVTVPSSSLGTKTYTCNVDHKPSNTKVDKRV[letters of human IgG4 Fc with S228P (EU numbers) omitted] light: DIVMTQAAFSNPVTLGTSASISCRSSKSLLHTNGITFLYWYLQKPGQSPQPLIYQMSNLASGVPDRFSSSGSGTDFTLRISRVEAEDVGVYYCAQNLELPWTFGGGTKLEINRTVAAPSVFIFPPSDEQLKSGTASVVCLLNNFYPREAKVQWKVDNALQSGNSQESVTEQDSKDSTYSLSSTLTLSKADYEKHKVYACEVTHQGLSSPVTKSFNRGEC |  |  | Binding to Peptide 2 (SEQ ID NO: 4) of Gal3: bind

Second part, led by results:

Binding to Peptide 1 (SEQ ID NO: 3) of Gal3 | Binding to Peptide 7 (SEQ ID NO: 9) of Gal3 | Molecule | other results
bind and bound | bind and bound | F847C.26F5: anti-Gal3 antibody (antibody) heavy: QIQLVQSGPEVKKPGETVKISCKASGYIFTNYGMNWVKQAPGKGLKWMGWINTYTGEPTYTDDFKGRFAFSLETSASTAYLQINNLKNEDTATYFCAKFGNYVGAMDYWGQGTSVTVSSASTKGPSVFPLAPCSRSTSESTAALGCLVKDYFPEPVTVSWNSGALTSGVHTFPAVLQSSGLYSLSSVVTVPSSSLGTKTYTCNVDHKPSNTKVDKRV[letters of human IgG4 Fc with S228P (EU numbers) omitted] light: EIKMNQSPSSLSASLGDTITITCHASQNINVWLSWYQQKPGNIPKLLIYKASNLHTGVPSRFSGSGSGTGFTLTISSLQPEDIATYYCQQGQSYPYTFGGGTKLELKRTVAAPSVFIFPPSDEQLKSGTASVVCLLNNFYPREAKVQWKVDNALQSGNSQESVTEQDSKDSTYSLSSTLTLSKADYEKHKVYACEVTHQGLSSPVTKSFNRGEC | 
bind and bound | bind and bound | F847C.12F12: anti-Gal3 antibody (antibody) heavy: QIQLVQSGPELKKPGETVKISCKASGYTFTNYGMNWVKQAPGKGLKWMGWINTYTGEPTYVDDFKGRFAFSLETSASTAYLRINNLKNEDTATYFCAKFGNYVGAMDYWGQGTSVTVSSASTKGPSVFPLAPCSRSTSESTAALGCLVKDYFPEPVTVSWNSGALTSGVHTFPAVLQSSGLYSLSSVVTVPSSSLGTKTYTCNVDHKPSNTKVDKRV[letters of human IgG4 Fc with S228P (EU numbers) omitted] light: DIQVIQSPSSLSASLGDTITITCHASQNINVWLSWYQQKPGNIPKLLIYKASNLHTGVPSRFSGSGSGTGFTLTISSLQPEDIATYYCQQGQSYPYTFGGGTKLELKRTVAAPSVFIFPPSDEQLKSGTASVVCLLNNFYPREAKVQWKVDNALQSGNSQESVTEQDSKDSTYSLSSTLTLSKADYEKHKVYACEVTHQGLSSPVTKSFNRGEC | 
